From the supplement of paper PMC9446081 come the findings set out here.

SMILES strings stand for the structures. Out of some 39,000 compounds screened, about 220 (0.56%) showed activity. Some of the results follow.
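Note: static incubation at 37 °C against the wild-type strain, values averaged over two biological replicates.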

The subject of this experiment is Escherichia coli K-12 BW25113. The experiment in a line: relative growth (OD600 normalised to plate interquartile mean) (fraction); higher = less growth inhibition, active = 0.2 or less. Particulars: 50 µM; LB; incubation time: overnight (16-24 h).
As to `O=C(NCc1ccccc1)C1=C[C@@H](c2ccc(Br)cc2)C[C@@H](OCc2ccc(CO)cc2)O1`, the relative growth is inactive: 1.03. To `C[C@@H]1CN([C@H](C)CO)C(=O)c2cc(NS(C)(=O)=O)ccc2O[C@H]1CN(C)C(=O)Nc1ccc2c(c1)OCO2` belongs inactive: 0.969; to `Cc1ccc(C#N)c(=O)[nH]1`, inactive: 0.999. For `COc1ccc(CN(C)C[C@H]2OCCCC[C@H](C)Oc3ccc(NC(=O)Nc4ccc5c(c4)OCO5)cc3C(=O)N([C@@H](C)CO)C[C@H]2C)cc1`, the relative growth is inactive: 0.965. To `COc1ccc(S(=O)(=O)N(C)C[C@@H]2Oc3ccc(NC(=O)CCN4CCOCC4)cc3CC(=O)N([C@H](C)CO)C[C@H]2C)cc1` belongs inactive: 0.984; to `C=CCN1C[C@H](C(=O)O)CC1=O`, inactive: 0.992; to `CCc1ccc(NC(=S)Nc2ccccc2C(C)C)cc1`, inactive: 0.982. Consider `COc1cccc(C(=O)Nc2ccc3c(c2)C(=O)N(C)[C@@H]2CC[C@@H](CC(=O)NCC4CC4)O[C@H]2CO3)c1`, for which the relative growth was inactive: 1.01. To `Cc1noc(C)c1NC(=O)N(C)C[C@H]1Oc2ccc(NC(=O)CCN3CCOCC3)cc2C(=O)N([C@H](C)CO)C[C@H]1C` belongs inactive: 1.04; to `C[C@@H]1CCCCO[C@@H](CN(C)Cc2ccc3c(c2)OCO3)[C@@H](C)CN([C@H](C)CO)C(=O)c2cc(NC(=O)CCC(F)(F)F)ccc2O1`, inactive: 1. For the molecule `COc1ccc(NC(=O)Nc2ccc3c(c2)C(=O)N([C@@H](C)CO)C[C@@H](C)[C@H](CN(C)S(=O)(=O)c2c(C)noc2C)OCCCC[C@@H](C)O3)cc1`, the relative growth is inactive: 1.07. The value for `Cc1noc(C)c1NC(=O)Nc1ccc2c(c1)CC(=O)N([C@@H](C)CO)C[C@H](C)[C@@H](CN(C)S(=O)(=O)c1c(C)noc1C)O2` was inactive: 0.988. For the molecule `Cc1noc(C)c1NC(=O)Nc1cccc2c1O[C@@H](CN(C)S(C)(=O)=O)[C@H](C)CN([C@H](C)CO)C2=O`, the relative growth was inactive: 0.99.

Regarding `Cc1ccc(S(=O)(=O)Nc2cccc3c2O[C@H](CN(C)C(=O)Nc2ccc(C(F)(F)F)cc2)[C@@H](C)CN([C@H](C)CO)C3=O)cc1`, the relative growth is inactive: 0.983. The value for `CC1(C)C=C(C(=O)N2CCOCC2)C(C)(C)N1` was inactive: 1.02. To `CC(C)(O)C#Cc1cccc(-c2nc(C(=O)NCCCN3CCOCC3)cc3c2[C@@H](CCO)N(S(=O)C(C)(C)C)C3)c1` (some centres undefined) belongs inactive: 0.982; to `COc1ccc(-c2cnc3c(c2)C(=O)N([C@H](C)CO)C[C@H](C)[C@H](CN(C)S(=O)(=O)c2ccccc2)O3)cc1`, inactive: 1.01.

Turning to `CCCNC(=O)Nc1ccc2c(c1)C(=O)N(C)C[C@H](OC)[C@@H](C)CN(C(=O)C1CCOCC1)[C@@H](C)CO2`, the relative growth is inactive: 1. The value for `Cc1ccc(S(=O)(=O)N2C[C@@H](O)COC[C@@H]3O[C@H](CC(=O)N[C@@H]4CCN(Cc5ccccc5)C4)CC[C@H]32)cc1` was inactive: 0.983; that for `C[C@@H]1CCCCO[C@H](CN(C)Cc2ccc(C(=O)O)cc2)[C@@H](C)CN([C@H](C)CO)C(=O)c2cc(NC(=O)Nc3ccccc3)ccc2O1` was inactive: 1.01. Take `NCc1cccc2nsnc12`: the relative growth was inactive: 1.02. For the molecule `C[C@H](CO)N1C[C@H](C)[C@@H](CN(C)C(=O)c2cnccn2)Oc2ncc(C#CCC3CCCC3)cc2C1=O`, the relative growth was inactive: 1.01.

Consider `C[C@@H]1CN([C@H](C)CO)S(=O)(=O)c2ccc(-c3ccc(C(=O)N(C)C)cc3)cc2O[C@@H]1CN(C)C(=O)Cc1ccccn1`, for which the relative growth was inactive: 0.987. With `Cc1cc(-c2cccs2)cc(C)n1`, the relative growth was inactive: 0.904. The value for `C[C@@H]1CN([C@H](C)CO)C(=O)c2cc(NC(=O)Cn3cnnn3)ccc2O[C@H]1CN(C)S(=O)(=O)c1ccc(F)cc1` was inactive: 0.998; that for `COc1ccc(S(=O)(=O)Nc2ccc3c(c2)CC(=O)N([C@@H](C)CO)C[C@H](C)[C@H](CN(C)S(C)(=O)=O)O3)cc1` was inactive: 0.981. `C[C@@H]1CCCCO[C@@H](CN(C)C(=O)Nc2ccc(F)cc2)[C@@H](C)CN([C@@H](C)CO)C(=O)c2cc(NC(=O)NC3CCCCC3)ccc2O1`: the relative growth was inactive: 1.02. The value for `c1csc(Cn2cccc2)c1` was inactive: 1.07; that for `COc1ccc(NC(=O)Nc2ccc3c(c2)C(=O)N([C@H](C)CO)C[C@@H](C)[C@H](CN(C)S(=O)(=O)c2c(C)noc2C)OCCCC[C@H](C)O3)cc1` was inactive: 1.01; that for `CCCN(C)C[C@H]1OCCCC[C@@H](C)Oc2ccc(NS(C)(=O)=O)cc2C(=O)N([C@@H](C)CO)C[C@H]1C` was inactive: 1.01. To `COCC(=O)N(C)C[C@H]1Oc2cc(C#CCN(C)C)ccc2S(=O)(=O)N([C@@H](C)CO)C[C@@H]1C` belongs inactive: 0.809. The value for `Cc1noc(C)c1NC(=O)Nc1ccc2c(c1)C(=O)N([C@H](C)CO)C[C@H](C)[C@H](CN(C)CC1CC1)OCCCC[C@@H](C)O2` was inactive: 0.999; that for `C[C@H](CO)N1C[C@H](C)[C@H](CN(C)S(=O)(=O)c2cccs2)OCCCC[C@H](C)Oc2ccc(NC(=O)Nc3ccc(F)cc3)cc2C1=O` was inactive: 1.01; that for `C[C@@H]1CN([C@@H](C)CO)C(=O)c2cc(C#Cc3cccnc3)cnc2O[C@@H]1CN(C)S(C)(=O)=O` was inactive: 0.973. Turning to `Cc1noc(C)c1NC(=O)Nc1ccc2c(c1)C(=O)N([C@@H](C)CO)C[C@H](C)[C@H](CN(C)S(=O)(=O)c1ccc(Cl)cc1)OCCCC[C@@H](C)O2`, the relative growth is inactive: 0.975.

With `C[C@H]1CN([C@@H](C)CO)C(=O)c2cc(NC(=O)C3CC3)ccc2O[C@@H]1CN(C)Cc1ccc(-c2ccccc2)cc1`, the relative growth was inactive: 1.03. To `COCC(=O)N1C[C@H](C)[C@@H](OC)CN(C)C(=O)c2cc(NC(=O)Nc3ccccc3)ccc2OC[C@H]1C` belongs inactive: 0.997; to `C[C@H](CO)N1C[C@H](C)[C@H](CN(C)C(=O)Nc2ccc(C(F)(F)F)cc2)Oc2ccc(NS(C)(=O)=O)cc2C1=O`, inactive: 0.986. For `COc1ccccc1NC(=O)N(C)C[C@H]1Oc2cc(Br)ccc2S(=O)(=O)N([C@H](C)CO)C[C@@H]1C`, the relative growth is inactive: 1.01.
